SMILES strings stand for the structures. About 1,700 (3.3%) of roughly 52,000 compounds were called active. Cut-off read from the data, not from the text of the source: active = survival mostly below about 52% (no sharp cut-off); inactive = mostly above about 56%. The list shows a part of the results.

This test deals with Wild type. Nature of the test: S. aureus survival, RN4220 and DeltatarO strains – OD600, teichoic acid synthesis inhibitors, primary screen (AID 463173). To be noted: S. aureus RN4220 wild type/DeltatarO growth, OD600, 18 h, hits give low values, screened at 18.75 µg/mL (by protocol).
`COc1ccc(N(C)C(=O)CCS(=O)(=O)c2cccc3nsnc23)cc1`: the survival is inactive: 64%.

For the molecule `COc1cccc2sc(N(Cc3cccnc3)C(=O)C3COc4ccccc4O3)nc12` (configuration not stated), the survival was inactive: 135%.

On to `O=C(Cn1ncc2c(=O)oc3ccccc3c21)NCc1ccc(Cl)cc1`, for which the survival was inactive: 90%.

`CC(=O)N1CCCc2cc(S(=O)(=O)N(C)CC(=O)Nc3ccc(Cl)cc3C)ccc21`: the survival was inactive: 126%.

Regarding `CCOc1ccc(-n2c(SCC(=O)NC3CCCC3)nnc2-c2ccoc2C)cc1`, the survival is inactive: 102%.

Consider `Cc1ccc(Nc2nc3ccccc3c3nncn23)cc1C`, for which the survival was active: 3%.

Take `Cc1c(NC(=O)c2ccccc2F)cccc1-c1nc2cccnc2s1`: the survival is inactive: 92%.

`COc1ccc(CNC(=O)C(C(C)C)N2Cc3ccccc3C2=O)cc1` (configuration not stated): the survival is active: -6%.

For `CCCN(CCC)C(=O)C1CCN(c2ncnc3c2nc2n3CCCCC2)CC1`, the survival was inactive: 56%.

As to `COc1ccc2c(c1)CCc1c(C(=O)Nc3c(C)nn(Cc4ccc(C)cc4)c3C)noc1-2`, the survival was active: 16%.

As to `Cc1ccc(C)c(NC(=O)c2cc(S(=O)(=O)NCCC3=CCCCC3)ccc2F)c1`, the survival was inactive: 64%.

For `O=c1c(S(=O)(=O)c2ccccc2)cn(Cc2ccc(F)cc2)c2cc(N3CCCCC3)c(F)cc12`, the survival is inactive: 74%.

For `CCOc1ccc(CCNC(=O)CN(c2ccc(C)cc2)S(=O)(=O)N(C)C)cc1OCC`, the survival was inactive: 81%.

`CC1Cn2cc(C(=O)Nc3cccc(C(F)(F)F)c3)c(=O)c3c(Cl)ccc(c32)O1` (configuration not stated): the survival is inactive: 89%.

For the molecule `COC(=O)c1nnn(CC(=O)Nc2ccc(Br)c(C)c2)c1N`, the survival was inactive: 80%.

With `Cc1ccc(-c2onc(C)c2C)cc1S(=O)(=O)NC1CCCCC1`, the survival was inactive: 85%.

Take `CCN(CC)/C(N)=N/c1nc(C)cc(C)n1`: the survival is inactive: 112%.

As for `Cc1ccc(-n2c(=O)c3c(c4cc(C)ccc4n3C)n(CC(=O)Nc3cc(C)cc(C)c3)c2=O)cc1`, the survival was inactive: 119%.

Regarding `CCN1CCN(CCCNC(=O)c2ccc3c(c2)sc2nc(-c4ccc(OC)cc4)cn23)CC1`, the survival is inactive: 82%.

For `NCCNC(=O)c1ccco1`, the survival was inactive: 114%.

For the molecule `CCNc1c(NC(=O)c2cc(OCC)c(OCC)c(OCC)c2)c(=O)oc2ccccc12`, the survival was inactive: 92%.

In the case of `CCOC(=O)c1c(-c2ccc(OC)cc2)oc2ccc(OCc3ccc(C(=O)OC)cc3)cc12`, the survival was inactive: 53%.

Turning to `CC(NC(=O)C(=O)Nc1c2c(nn1-c1ccc(F)cc1)CSC2)c1ccccc1` (configuration not stated), the survival was active: -4%.

Regarding `COc1cccc(CNC(=O)CCn2cccn2)c1`, the survival was inactive: 75%.

As to `CCc1cc(C=Nc2ccccc2)c(O)s1`, the survival is inactive: 113%.

As for `O=C(NCCCN1CCN(c2ccccc2F)CC1)c1nnc(Cc2ccc(Cl)cc2Cl)o1`, the survival was inactive: 77%.

`CCOC(=O)c1c(NC(=O)COc2ccc(F)cc2)sc2c1CCC(C)C2` (configuration not stated): the survival was inactive: 69%.

For `CCC(=O)N1CCc2cc(Br)cc(S(=O)(=O)NCCc3ccccc3)c21`, the survival is inactive: 68%.

As to `CCOC(=O)c1[nH]cnc1C(=O)Nc1ccc(F)cc1`, the survival is inactive: 71%.

As to `CCCCN(C)CCNC(=O)c1nn(-c2ccc(OC)cc2)c(=O)c2c1c1ccccc1n2C`, the survival was inactive: 74%.

Take `N#C/C(=C\c1ccc(-c2cc(Cl)ccc2Cl)o1)C(=O)Nc1ccccc1C(=O)O`: the survival was inactive: 60%.

As to `CC(C)(C)C(=O)Nc1cccc(C(=O)OCc2cc(=O)n3nc(C4CCCCC4)sc3n2)c1`, the survival was inactive: 130%.

Regarding `O=C(CSc1nc2ccccc2n1Cc1ccccc1Cl)NCc1ccccc1`, the survival was inactive: 72%.

Turning to `COc1cccc(CNC(=O)CCNS(=O)(=O)c2ccc3c(c2)oc(=O)n3C)c1`, the survival is inactive: 78%.

Turning to `Cc1cc(C)c(Cn2c(C(O)c3ccccc3)nc3ccccc32)c(C)c1` (configuration not stated), the survival is active: 11%.

With `CCn1cc2nc(SCc3ccccc3F)n(Cc3ccc(C)cc3)c(=O)c2n1`, the survival was inactive: 72%.

As for `Cc1ccc(NC(=O)CCS(=O)(=O)c2cccc3nsnc23)c(C)c1`, the survival was inactive: 74%.

Consider `CCN(Cc1ccccc1)C(=O)CN1C(=O)COc2ccc(S(=O)(=O)N3CCCCCC3)cc21`, for which the survival was inactive: 98%.

Turning to `CC(CN=CC1=C(O)CC(C)(C)CC1=O)N=CC1=C(O)CC(C)(C)CC1=O` (configuration not stated), the survival was inactive: 98%.

In the case of `CCOc1ccc(NC(=O)CCS(=O)(=O)c2ccc3c(c2)n(C)c(=O)c(=O)n3C)cc1`, the survival was inactive: 81%.

As for `Cc1ccc2cccc(NC(=O)C(C)(C)Oc3ccc(Br)cc3)c2n1`, the survival was inactive: 64%.

In the case of `CCCS(=O)(=O)Nc1cc2c(cc1NCc1ccccc1)n(C)c(=O)n2C`, the survival is inactive: 82%.

As to `CCOc1ccc(NC(=O)CSc2nc(-c3ccc(F)cc3)cc(C(F)(F)F)c2C#N)cc1`, the survival was inactive: 127%.

As for `COc1ccc(C(=O)NCC23C=CC(O2)C2C(=O)N(c4ccccc4C)C(=O)C23)cc1` (configuration not stated), the survival was inactive: 103%.

As for `CCOC(=O)c1ccccc1NC(=O)Cn1c2ncccc2c(=O)n1-c1ccccc1`, the survival is inactive: 120%.

As for `Cc1ccc(C)c(N2CCN(Cc3nnc(-c4ccccc4)o3)CC2)c1`, the survival was inactive: 87%.

On to `COc1cccc(C(=O)c2cn(CC(=O)Nc3cccc(C)c3C)c3nc(C)ccc3c2=O)c1`, for which the survival was inactive: 80%.

In the case of `COc1cc(-c2nnc(SCCOc3ccc(C)c(Cl)c3)o2)cc(OC)c1OC`, the survival was inactive: 125%.

On to `CCOC(=O)CSc1nc2ccc(NC(=O)c3ccccc3)cc2s1`, for which the survival was inactive: 87%.

On to `CCOCCCn1c(SCC(=O)Nc2ccc(OC)cc2OC)nc2ccccc2c1=O`, for which the survival is inactive: 80%.

For `O=C(NC(CO)C(=O)O)c1ccncc1` (configuration not stated), the survival was inactive: 90%.

For `Cc1ccc(CN2CCc3nc(SCC(=O)Nc4cccc(C)c4C)[nH]c(=O)c3C2)cc1`, the survival was inactive: 91%.

As to `COc1ccc(-c2cn3c(n2)sc2cc(C(=O)Nc4cc(Cl)ccc4C)ccc23)cc1`, the survival was inactive: 83%.

As for `CCc1ccc(C(=O)Nc2ccc3nn(-c4ccc(C)c(Cl)c4)nc3c2)cc1`, the survival is inactive: 87%.

Turning to `Cc1cccc(C)c1NC(=O)Cn1nc(C)c2sc3ccccc3c2c1=O`, the survival was inactive: 97%.

Turning to `COc1cc(OC)cc(-c2nc3nc(C)c(CCC(=O)Nc4cc(F)ccc4F)c(C)n3n2)c1`, the survival is inactive: 109%.

With `CCOC(=O)c1ccc(NC(=O)Cn2cc(C(=O)c3ccc(Cl)cc3)c(=O)c3ccc(C)nc32)cc1`, the survival was inactive: 68%.

Values taken from PubChem BioAssay AID463173 (ICCB-Longwood Screening Facility, Harvard Medical School, 2010).
